This is an account of results in the antibiotic and cytotoxicity screens of Wong et al. (2023).

The list shows a part of the results.

In assay [1] the test system is HSkMC (human skeletal muscle cells). Kind of assay: cytotoxicity call (relative viability < 0.9). The note with it: 10 µM.
The test system of assay [2] is HepG2. Kind of assay: cytotoxicity call (relative viability < 0.9). The note with it: 10 µM.
In assay [3] the test system is S. aureus RN4220. Kind of assay: growth inhibition call (relative growth <= 0.2). The note with it: 50 µM.

`O=C(O)[C@@H]1CCCN1`: the cytotoxicity call in assay [1] and in assay [2] was “inactive” each time. Also, the growth inhibition call in assay [3] was “inactive”.
As to `C[C@H](CO)N1C[C@H](C)[C@H](CN(C)S(=O)(=O)c2cccs2)Oc2ncc(Br)cc2C1=O`, the cytotoxicity call in assay [1] and in assay [2] was “inactive” in each case. In addition, the growth inhibition call in assay [3] was “inactive”.
For `COc1cccc(NC(=O)N2C[C@@H](O)COC[C@@H]3O[C@@H](CC(=O)NCCCN4CCOCC4)CC[C@H]32)c1`, the cytotoxicity call in assay [1] and in assay [2] was “inactive” in each case. In assay [3], the growth inhibition call is “inactive”.
On to `COc1ccc(CN(C)C[C@H]2OCCCC[C@@H](C)Oc3ccc(NS(=O)(=O)c4ccc(F)cc4)cc3C(=O)N([C@@H](C)CO)C[C@@H]2C)cc1`, for which the cytotoxicity call in assay [1] and in assay [2] was “inactive” in each case. In assay [3], the growth inhibition call was “inactive”.
Turning to `C[C@H](CO)N1C[C@H](C)[C@H](CN(C)S(C)(=O)=O)Oc2ccc(NS(=O)(=O)c3ccc(Cl)cc3)cc2CC1=O`, the cytotoxicity call in assay [1] and in assay [2] was “inactive” in each case. Also, the growth inhibition call in assay [3] was “inactive”.
In the case of `COC(=O)c1c(CC[C@@H](COC(=O)NCCCCCC(=O)NO)NC(=O)N[C@@H](Cc2ccccc2)Cn2cc(-c3ccccc3)nn2)oc(C(=O)N2CCOCC2)c1C(=O)OC`, the cytotoxicity call in assay [1] and in assay [2] was “inactive” each time. Also, the growth inhibition call in assay [3] is “inactive”.
Regarding `C[C@H]1CN([C@@H](C)CO)C(=O)c2c(c3ccccc3n2C)-c2ccccc2CO[C@@H]1CN(C)Cc1ccc2c(c1)OCCN2C`, the cytotoxicity call in assay [1] is “inactive”. Besides, the cytotoxicity call in assay [2] is “active”. The growth inhibition call in assay [3] was “inactive”.
Turning to `Cc1n[nH]c(=O)nc1NC1CC1`, the cytotoxicity call in assay [1] and in assay [2] was “inactive” throughout. Moreover, in assay [3], the growth inhibition call was “inactive”.
For `COc1ccc(CN(C)C[C@H]2OCCCC[C@@H](C)Oc3ccc(NC(=O)c4ccccc4)cc3C(=O)N([C@@H](C)CO)C[C@@H]2C)cc1`, the cytotoxicity call in assay [1] and in assay [2] was “inactive” in each case. The growth inhibition call in assay [3] is “inactive”.
Consider `CC(C)NC(=O)Nc1ccc2c(c1)C(=O)N([C@@H](C)CO)C[C@@H](C)[C@@H](CN(C)C(=O)NC1CCCCC1)O2`, for which the cytotoxicity call in assay [1] and in assay [2] was “inactive” throughout. In assay [3], the growth inhibition call was “inactive”.
In the case of `CCCNC(=O)C[C@H]1CC[C@H]2[C@@H](COC[C@@H](O)CN2S(=O)(=O)c2ccc(Oc3ccccc3)cc2)O1`, the cytotoxicity call in assay [1] and in assay [2] was “inactive” in each case. Also, the growth inhibition call in assay [3] was “inactive”.
Take `C[C@@H]1CN([C@H](C)CO)C(=O)c2cccc(NC(=O)Nc3ccc(C(F)(F)F)cc3)c2O[C@@H]1CN(C)Cc1ccc(C(F)(F)F)cc1`: the cytotoxicity call in assay [1] and in assay [2] was “active” throughout. Also, the growth inhibition call in assay [3] was “inactive”.
In the case of `C[C@H](CO)N1C[C@H](C)[C@H](CN(C)S(C)(=O)=O)Oc2ccc(NC(=O)Nc3ccc4c(c3)OCO4)cc2CC1=O`, the cytotoxicity call in assay [1] and in assay [2] was “inactive” each time. Further, the growth inhibition call in assay [3] was “inactive”.
Turning to `C[C@@H]1CN([C@H](C)CO)S(=O)(=O)c2ccc(C#CCN(C)C)cc2O[C@@H]1CN(C)C(=O)c1ccccc1F`, the cytotoxicity call in assay [1] and in assay [2] was “inactive” in each case. Further, in assay [3], the growth inhibition call is “inactive”.
Turning to `C[C@@H]1CCCCO[C@@H](CN(C)C(=O)NC2CCCCC2)[C@H](C)CN([C@H](C)CO)C(=O)c2cc(NC(=O)CCC(F)(F)F)ccc2O1`, the cytotoxicity call in assay [1] and in assay [2] was “inactive” in each case. In addition, the growth inhibition call in assay [3] was “inactive”.
As for `COc1ccc(CN(C)C[C@@H]2OCCCC[C@H](C)Oc3ccc(NC(=O)Nc4cccc5ccccc45)cc3C(=O)N([C@H](C)CO)C[C@@H]2C)cc1`, the cytotoxicity call in assay [1] and in assay [2] was “inactive” each time. In addition, the growth inhibition call in assay [3] is “inactive”.
Take `CCCNC(=O)Nc1ccc2c(c1)OC[C@H](C)N(C(=O)C1CCOCC1)C[C@@H](C)[C@H](OC)CN(C)C2=O`: the cytotoxicity call in assay [1] and in assay [2] was “inactive” throughout. The growth inhibition call in assay [3] is “inactive”.
For the compound `COc1ccc(NC(=O)Nc2ccc3c(c2)C(=O)N([C@H](C)CO)C[C@@H](C)[C@@H](CN(C)S(=O)(=O)c2ccc(Cl)cc2)OCCCC[C@H](C)O3)cc1`, the cytotoxicity call in assay [1] and in assay [2] was “inactive” throughout. In assay [3], the growth inhibition call was “inactive”.
`Cc1noc(C)c1NC(=O)Nc1ccc2c(c1)C(=O)N([C@@H](C)CO)C[C@H](C)[C@H](CN(C)Cc1ccc(-c3ccccc3)cc1)O2`: the cytotoxicity call in assay [1] and in assay [2] was “inactive” in each case. The growth inhibition call in assay [3] was “inactive”.
With `C[C@H]1CN([C@@H](C)CO)C(=O)c2cc(NC(=O)Nc3ccc(C(F)(F)F)cc3)ccc2O[C@@H]1CN(C)C(=O)Nc1cccc2ccccc12`, the cytotoxicity call in assay [1] and in assay [2] was “inactive” in each case. In addition, the growth inhibition call in assay [3] is “inactive”.
`C[C@@H]1CCCCO[C@H](CN(C)S(C)(=O)=O)[C@H](C)CN([C@@H](C)CO)C(=O)c2cc(NS(C)(=O)=O)ccc2O1`: the cytotoxicity call in assay [1] and in assay [2] was “inactive” in each case. Besides, in assay [3], the growth inhibition call is “inactive”.
As for `C[C@@H]1CCCCO[C@H](CN(C)C(=O)Nc2ccc(F)cc2)[C@@H](C)CN([C@@H](C)CO)C(=O)c2cc(NC(=O)Nc3ccccc3)ccc2O1`, the cytotoxicity call in assay [1] and in assay [2] was “inactive” throughout. The growth inhibition call in assay [3] is “inactive”.
For `COc1cc(OC)c(CN(CC#CCOC(=O)NCCCCCC(=O)NO)S(=O)(=O)c2ccccc2[N+](=O)[O-])c(OC)c1`, the cytotoxicity call in assay [1] and in assay [2] was “inactive” in each case. For the same compound, the growth inhibition call in assay [3] was “inactive”.
As for `CCS(=O)(=O)Nc1ccc2c(c1)C(=O)N(C)C[C@@H](OC)[C@H](C)CN(Cc1ccccn1)[C@H](C)CO2`, the cytotoxicity call in assay [1] and in assay [2] was “inactive” in each case. Also, in assay [3], the growth inhibition call is “inactive”.
In the case of `Cc1ccc(S(=O)(=O)N(C)C[C@H]2Oc3ccc(NS(=O)(=O)c4cn(C)cn4)cc3CC(=O)N([C@@H](C)CO)C[C@@H]2C)cc1`, the cytotoxicity call in assay [1] and in assay [2] was “inactive” throughout. In addition, the growth inhibition call in assay [3] was “inactive”.
With `C[C@@H]1CN([C@@H](C)CO)C(=O)c2c(c3ccccc3n2C)-c2ccccc2CO[C@H]1CN(C)C(=O)Nc1ccc2c(c1)OCO2`, the cytotoxicity call in assay [1] and in assay [2] was “inactive” throughout. Moreover, in assay [3], the growth inhibition call was “inactive”.
For `C[C@@H]1CN([C@H](C)CO)C(=O)c2cc(NS(=O)(=O)c3cn(C)cn3)ccc2O[C@@H]1CN(C)CC1CCCCC1`, the cytotoxicity call in assay [1] and in assay [2] was “inactive” in each case. The growth inhibition call in assay [3] was “inactive”.
With `Cn1cnc(CCNC(=O)C[C@H]2CC[C@@H]3[C@H](COC[C@@H](O)CN3C(=O)Nc3ccc(C(F)(F)F)cc3)O2)c1`, the cytotoxicity call in assay [1] and in assay [2] was “inactive” each time. Besides, the growth inhibition call in assay [3] is “inactive”.
